We go through 153 variants from a collection of fitness landscapes (doi:10.1126/science.1257360).

The list shows a part of the results.

Sequences and labels used below:
B1: PhoQ; a variant is named by its letters at X, in order, P23837 (parent)
chain: MKKLLRLFFPLSLRVRFLLATAAVVLVLSLAYGMVALIGYSVSFDKTTFRLLRGESNLFYTLAKWENNKLHVELPENIDKQSPTMTLIYDENGQLLWAQRDVPWLMKMIQPDWLKSNGFHEIEADVNDTSLLLSGDHSIQQQLQEVREDDDDAEMTHSVAVNVYPATSRMPKLTIVVVDTIPVELKSSYMVWSWFIYVLSANLLLVIPLLWVAAWWSLRPIEALAKEVRELEEHNRELLNPATTRELTSLVRNLNRLLKSERERYDKYRTTLTDLTHSLKTPLXXLQXXLRSLRSEKMSVSDAEPVMLEQISRISQQIGYYLHRASMRGGTLLSRELHPVAPLLDNLTSALNKVYQRKGVNISLDISPEISFVGEQNDFVEVMGNVLDNACKYCLEFVEISARQTDEHLYIVVEDDGPGIPLSKREVIFDRGQRVDTLRPGQGVGLAVAREITEQYEGKIVAGESMLGGARMEVIFGRQHSAPKDE

The variants in the experiment derive from B1. The experiment can be described thus: enrichment ratio after two sorts for PhoP signalling (ratio (wild type AVST 3.29)); higher = more functional. As to conditions: with PhoP (E. coli).
Turning to PCIK, the enrichment ratio is not above 0.25.

Consider KYVK, for which the enrichment ratio is not above 0.25.

Take MRKA: the enrichment ratio was not above 0.25.

Turning to LNCT, the enrichment ratio is not above 0.25.

Regarding HHER, the enrichment ratio is not above 0.25.

Regarding RLIL, the enrichment ratio was not above 0.25.

Take YKPI: the enrichment ratio is not above 0.25.

For the variant MYHP, the enrichment ratio is not above 0.25.

Turning to AGVL, the enrichment ratio turned out to be 7.73.

On to KYWI, for which the enrichment ratio was not above 0.25.

With RLMT, the enrichment ratio is not above 0.25.

As for TMSF, the enrichment ratio amounted to 10.3.

Turning to RSRT, the enrichment ratio was not above 0.25.

Regarding LHFQ, the enrichment ratio was not above 0.25.

As to LEMQ, the enrichment ratio was determined as 1.33.

Regarding WKQG, the enrichment ratio was not above 0.25.

Turning to AQQS, the enrichment ratio was not above 0.25.

Consider HDRV, for which the enrichment ratio is not above 0.25.

For YLNG, the enrichment ratio is not above 0.25.

In the case of LMCD, the enrichment ratio is not above 0.25.

Take FYTY: the enrichment ratio is not above 0.25.

As for GPRG, the enrichment ratio is not above 0.25.

Turning to PYNF, the enrichment ratio is not above 0.25.

On to HGNF, for which the enrichment ratio was not above 0.25.

IVNI: the enrichment ratio is not above 0.25.

Turning to VLVL, the enrichment ratio is not above 0.25.

In the case of MCTI, the enrichment ratio is 3.03.

As for WFVY, the enrichment ratio was not above 0.25.

For NPGP, the enrichment ratio was not above 0.25.

Regarding TNTL, the enrichment ratio was 14.

With TRHY, the enrichment ratio is not above 0.25.

Regarding VAMG, the enrichment ratio amounted to 1.95.

As to WHHP, the enrichment ratio is not above 0.25.

For MGDQ, the enrichment ratio is not above 0.25.

Regarding DWTM, the enrichment ratio is not above 0.25.

As to CSHR, the enrichment ratio is not above 0.25.

FKWK: the enrichment ratio was not above 0.25.

On to STMV, for which the enrichment ratio turned out to be 12.8.

Consider KCHC, for which the enrichment ratio was not above 0.25.

For the variant ILFA, the enrichment ratio was not above 0.25.

In the case of QNRW, the enrichment ratio was not above 0.25.

As to DEWA, the enrichment ratio was not above 0.25.

As for IASR, the enrichment ratio was not above 0.25.

Regarding RTMK, the enrichment ratio was not above 0.25.

With FGQI, the enrichment ratio was not above 0.25.

As for IESG, the enrichment ratio is not above 0.25.

For the variant KKNV, the enrichment ratio is not above 0.25.

On to RIMA, for which the enrichment ratio was not above 0.25.

TTNA: the enrichment ratio was 6.58.

With PRSI, the enrichment ratio was not above 0.25.

SCIA: the enrichment ratio is 5.76.

Regarding WGKV, the enrichment ratio is not above 0.25.

Turning to WTNK, the enrichment ratio is not above 0.25.

With PCQL, the enrichment ratio was not above 0.25.

Consider TYDF, for which the enrichment ratio was not above 0.25.

Consider TDEC, for which the enrichment ratio is not above 0.25.

In the case of GVMA, the enrichment ratio is not above 0.25.

Regarding LKMS, the enrichment ratio was not above 0.25.

As for TTYH, the enrichment ratio was 2.81.

With NVHM, the enrichment ratio is not above 0.25.

TMYC: the enrichment ratio is not above 0.25.

As for FEGY, the enrichment ratio was not above 0.25.

VPCM: the enrichment ratio was not above 0.25.

For the variant FEVC, the enrichment ratio came to 3.92.

Turning to VSLF, the enrichment ratio is 0.403.

In the case of NVSS, the enrichment ratio is not above 0.25.

For PPMA, the enrichment ratio is not above 0.25.

As for WAYY, the enrichment ratio was not above 0.25.

HQIS: the enrichment ratio was not above 0.25.

Consider PEAT, for which the enrichment ratio is not above 0.25.

CWRL: the enrichment ratio was not above 0.25.

As to KAFD, the enrichment ratio was not above 0.25.

As to QPNA, the enrichment ratio was not above 0.25.

Consider SWTP, for which the enrichment ratio is not above 0.25.

Turning to DVDK, the enrichment ratio was not above 0.25.

TTDW: the enrichment ratio is not above 0.25.

On to YREV, for which the enrichment ratio is not above 0.25.

As to RDTC, the enrichment ratio is not above 0.25.

In the case of SILM, the enrichment ratio is 0.906.

For GIGR, the enrichment ratio is not above 0.25.

For the variant TPPI, the enrichment ratio was not above 0.25.

Regarding LLIT, the enrichment ratio is not above 0.25.

In the case of DRDN, the enrichment ratio is not above 0.25.

As to RTGA, the enrichment ratio worked out at 0.388.

In the case of VGHV, the enrichment ratio was not above 0.25.

In the case of YHCI, the enrichment ratio is not above 0.25.

Turning to EHQY, the enrichment ratio was not above 0.25.

With WKYV, the enrichment ratio was not above 0.25.

As to EYML, the enrichment ratio was not above 0.25.

For EVPL, the enrichment ratio was not above 0.25.

Consider FAMW, for which the enrichment ratio is not above 0.25.

Take GRLL: the enrichment ratio was not above 0.25.

For RWTL, the enrichment ratio is not above 0.25.

As to LGMQ, the enrichment ratio was not above 0.25.

On to DIAC, for which the enrichment ratio is not above 0.25.

Turning to LENQ, the enrichment ratio is not above 0.25.

As for WAHR, the enrichment ratio is not above 0.25.

Consider QSFN, for which the enrichment ratio worked out at 1.92.

Regarding NLMS, the enrichment ratio was not above 0.25.

As to VWFK, the enrichment ratio was not above 0.25.

Consider DAWY, for which the enrichment ratio is not above 0.25.

As to TQPK, the enrichment ratio was not above 0.25.

Turning to CSSW, the enrichment ratio was not above 0.25.

On to HEEG, for which the enrichment ratio is not above 0.25.

For HFTA, the enrichment ratio was not above 0.25.

In the case of YPWE, the enrichment ratio was not above 0.25.

Take QCLP: the enrichment ratio was not above 0.25.

As for YNYY, the enrichment ratio was not above 0.25.

MHHS: the enrichment ratio is not above 0.25.

As for TNMN, the enrichment ratio is not above 0.25.

Consider GDWS, for which the enrichment ratio is not above 0.25.

YMCS: the enrichment ratio was not above 0.25.

In the case of RVYY, the enrichment ratio is not above 0.25.

Consider EDEP, for which the enrichment ratio was not above 0.25.

Take SDSG: the enrichment ratio came to 0.62.

In the case of ATTQ, the enrichment ratio came out at 2.71.

Turning to WIQK, the enrichment ratio is not above 0.25.

For MPAP, the enrichment ratio was not above 0.25.

As to LFIV, the enrichment ratio was not above 0.25.

MDAP: the enrichment ratio was not above 0.25.

MPVE: the enrichment ratio was not above 0.25.

Consider TVGS, for which the enrichment ratio was 8.38.

On to KFTS, for which the enrichment ratio was not above 0.25.

On to DMMV, for which the enrichment ratio was not above 0.25.

For the variant NAYI, the enrichment ratio was not above 0.25.

For MSEF, the enrichment ratio was not above 0.25.

As for FHDS, the enrichment ratio was not above 0.25.

In the case of HPKP, the enrichment ratio was not above 0.25.

With WAQE, the enrichment ratio is not above 0.25.

Turning to PPDC, the enrichment ratio was not above 0.25.

With QEEN, the enrichment ratio is not above 0.25.

Consider YRYD, for which the enrichment ratio is not above 0.25.

Consider IAYP, for which the enrichment ratio was not above 0.25.

Consider HISG, for which the enrichment ratio was not above 0.25.

WYWF: the enrichment ratio is not above 0.25.

LMGM: the enrichment ratio was not above 0.25.

Take THCN: the enrichment ratio amounted to 4.64.

YKLP: the enrichment ratio was not above 0.25.

As for LQQR, the enrichment ratio is not above 0.25.

With YVFW, the enrichment ratio is not above 0.25.

For VPTF, the enrichment ratio is not above 0.25.

For LITY, the enrichment ratio was not above 0.25.

Regarding LPID, the enrichment ratio was not above 0.25.

Turning to TSFG, the enrichment ratio was 0.865.

Regarding ECFF, the enrichment ratio was not above 0.25.

For NHYK, the enrichment ratio was not above 0.25.

In the case of LGKR, the enrichment ratio was not above 0.25.

As for MKLL, the enrichment ratio worked out at 11.4.

For PMMK, the enrichment ratio was not above 0.25.

Consider RSKQ, for which the enrichment ratio turned out to be 0.493.

Turning to KVLG, the enrichment ratio is not above 0.25.

With IYFA, the enrichment ratio was not above 0.25.

Consider TQCR, for which the enrichment ratio was determined as 6.42.
